# Assay results: PubChem BioAssay AID1159614 (National Center for Advancing Translational Sciences (NCATS), 2016)
# About 65 (0.1%) of roughly 45,000 compounds were called active. Calls follow the shape of the dose curve; as a rule, active = well fitted activation curve with a large enough effect; inconclusive = small, poorly fitted or top-dose-only effect; inactive = no such curve, though single readings can be large or run the other way. Some of the results follow.
# Molecular target: Galactocerebrosidase (Homo sapiens) (UniProt P54803)
# UniProt P54803, sequence (P54803 whole entry, looked up): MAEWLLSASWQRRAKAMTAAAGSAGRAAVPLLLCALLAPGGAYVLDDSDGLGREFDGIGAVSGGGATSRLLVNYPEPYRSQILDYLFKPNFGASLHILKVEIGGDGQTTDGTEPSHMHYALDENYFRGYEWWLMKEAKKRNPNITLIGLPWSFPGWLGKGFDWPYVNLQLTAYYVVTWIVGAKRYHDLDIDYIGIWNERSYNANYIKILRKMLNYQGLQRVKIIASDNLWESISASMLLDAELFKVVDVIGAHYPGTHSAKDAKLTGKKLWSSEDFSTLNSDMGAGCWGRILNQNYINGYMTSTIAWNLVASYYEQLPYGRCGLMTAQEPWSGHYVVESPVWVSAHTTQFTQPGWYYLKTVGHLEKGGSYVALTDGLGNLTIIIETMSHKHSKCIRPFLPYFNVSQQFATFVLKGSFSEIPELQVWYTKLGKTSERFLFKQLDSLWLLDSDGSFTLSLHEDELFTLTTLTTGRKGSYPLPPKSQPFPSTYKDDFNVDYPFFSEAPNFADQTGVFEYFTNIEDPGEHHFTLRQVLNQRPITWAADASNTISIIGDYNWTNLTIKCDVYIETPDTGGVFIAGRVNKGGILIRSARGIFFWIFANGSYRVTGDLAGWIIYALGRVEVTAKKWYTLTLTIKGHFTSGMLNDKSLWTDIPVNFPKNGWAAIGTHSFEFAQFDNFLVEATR
# Assay: A Novel Cell-Based Assay to Identify Small Molecules for B -Galactocerebrosidase; also: nearly all actives have a fitted effect of over 65% in size; as to activation: 0% is about no effect
# Conditions: 145M-Twi-hGALC-G270D cells (Twitcher mouse brain line with human GALC G270D), HMU-beta-Gal fluorescence, 48 h; series mostly up to 57.5 µM; activation: at the top concentration
# In short: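 Fluorogenic HMU-b-Gal hydrolysis (0.1 mM final, pH 5.2 citrate-phosphate with 1 mg/mL sodium taurocholate; carbonate stop buffer) measures mutant GALC activity after compound treatment of live 145M-Twi Twitcher brain cells stably carrying human GALC-G270D, with wild-type GALC line alongside; activation sought.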
# Potency is read from the fitted curve at half-maximal effect.
Structure (SMILES),activation,Potency
CCc1ccc(OCC2c3cc(OC)c(OC)cc3CCN2C(=O)c2ccc(S(=O)(=O)N3CCCC3)cc2)cc1 (stereo unspecified),inactive: -20.3%,–
COC(=O)c1ccc2c(=O)n(CCCCCC(=O)NCCc3ccccc3)c(=O)[nH]c2c1,inactive: -13.9%,–
Cc1cc(NC(=O)N2CCC(CN3CCCCCC3)CC2)ccc1Br,inactive: -5.93%,–
O=C(Cn1ccc2cc(S(=O)(=O)N3CCCCCC3)ccc21)NCc1ccccc1Cl,inactive: -0.02%,–
COc1cccc(NC(=O)c2c(C)nn(-c3cccc(C)c3)c2-n2cccc2)c1,inactive: -14.2%,–
COc1ccc(C)cc1-n1c(-c2ccc(Cl)cc2)cc2c1CC(C)(C)CC2=O,inactive: -16.5%,–
Cc1cccn2c(=O)c3cc(C(=O)NCC(C)C)sc3nc12,–,active: 3.98 µM
COc1ccc(N2CCN(C(CNS(=O)(=O)c3ccc(OC)c(C)c3)c3ccco3)CC2)cc1 (stereo unspecified),inactive: -13.6%,–
Cc1noc2ncnc(N3CCN(c4cccc(C(F)(F)F)c4)CC3)c12,inactive: -52.2%,–
Nc1c(C(=O)Nc2ccccc2Br)sc2nc(-c3cccs3)ccc12,inactive: -7.9%,–
O=C(CSc1nc2c([nH]c3ccccc32)c(=O)n1-c1ccccc1)Nc1ccc2c(c1)OCO2,inactive: -26.6%,–
COc1ccc(-c2nc(Cn3c(=O)cc(C)c4c(C)nn(-c5ccccc5)c43)c(C)o2)cc1OC,inactive: -5.46%,–
CN(CCOc1ccc(CC2SC(=O)NC2=O)cc1)c1ccccn1 (stereo unspecified),inactive: -9.12%,–
CCC1Sc2ccccc2N(CC(=O)NCc2ccc(C)cc2)C1=O (stereo unspecified),inactive: -17.5%,–
O=S(=O)(c1ccc(Cl)cc1)c1nnn2c1nc(NC1CCCC1)c1sccc12,inactive: -0.504%,–
Cc1ccc(CNC(=O)c2ccc(CSc3nc4ccncc4n3Cc3ccc(C)cc3)cc2)cc1,inactive: -6.23%,–
COc1cccc(C(=O)Nc2ccc3nc(SCC(=O)N(C)c4ccccc4)sc3c2)c1,inactive: 19.4%,–
CCOc1ccc(NC(=O)c2c(C)oc3nc(C)nc(N4CCCC4)c23)cc1,inactive: -5.33%,–
O=C(NCCc1ccc(Cl)cc1)C1CCN(Cc2cc3ccccc3n2Cc2ccccc2)CC1,inactive: 1.18%,–
COc1ccc(CCNC(=O)CCc2cn(Cc3ccccc3Cl)c3ccccc23)c(OC)c1,inactive: -0.299%,–
Cc1ccc(-n2nc(C)c3c(C)c(CCC(=O)NC(C)c4ccccc4)c(C)nc32)cc1 (stereo unspecified),inactive: -0.577%,–

Structure (SMILES),activation,Potency
Cc1ccc(Cc2nc3ccccc3nc2SCC(=O)N2CCC(C)CC2)cc1,inactive: -36.8%,–
Cc1ccc(NC(=O)Cn2c(=O)n(-c3ccc(C)cc3)c(=O)c3c2cnn3C)cc1,inactive: -17.2%,–
Fc1ccc(CN2CCc3nc(N4CCN(c5ccccc5F)CC4)ncc3C2)c(F)c1,inactive: -8.65%,–
CCOc1ccc(-c2cc(NC(=O)c3ccccc3)c(C(=O)OC)s2)cc1,inactive: -10.2%,–
Cc1cc(C)c(NC(=O)Cn2c(=O)oc3cc(S(=O)(=O)N4CCCCCC4)ccc32)c(C)c1,inactive: -17.9%,–
COc1ccccc1CCNC(=O)c1cccn1-c1nnc(N2CCCC2)s1,inactive: -14.2%,–
Cc1ccccc1NC(=O)C(=O)NCC(c1ccc2c(c1)OCO2)N1CCN(c2ccccc2)CC1 (stereo unspecified),inactive: -25.7%,–
COc1ccc(CNC(=O)Cn2c(=O)oc3cc(S(=O)(=O)NCc4ccccc4)ccc32)cc1,inactive: -13.1%,–
CCOc1ccc(C2C(C(=O)Nc3ccccc3)=C(C)Nc3nc(-c4ccccc4Cl)nn32)cc1OC (stereo unspecified),inactive: -10.9%,–
CCCN(C(=O)c1cc(S(=O)(=O)N2CCc3ccccc32)cn1C)c1ccc(OCC)cc1,inactive: -23.7%,–
Cc1ccc(Cl)cc1N1CCN(c2ncnc3c2nc2n3CCCC2)CC1,inactive: -13.7%,–
FC(F)(F)c1cccc(N2CCN(c3ncnc4c3nc3n4CCCC3)CC2)c1,inactive: -28.1%,–
CCC(C)NC(=O)c1cc(Sc2cccc(Cl)c2)nc2ccccc12 (stereo unspecified),inactive: 0.115%,–
CCCn1c2ccccc2c2cnn(CC(=O)NCCCN3CCCCC3CC)c(=O)c21 (stereo unspecified),inactive: 7.34%,–
O=C(Cn1nc(C(F)(F)F)c2c1CCCC2)Nc1cccc(Cl)c1,inactive: -12.5%,–
CCOc1ccc(Nc2cc(C)nc3nncn23)cc1,inactive: -6.71%,–
COc1ccc(NC(=O)c2cc3c(-c4ccccc4F)nn(C)c3s2)c(OC)c1,inactive: -10.3%,–
Cc1ccccc1NC(=O)Cn1cc(S(=O)(=O)c2ccccc2)c(=O)c2ccccc21,inactive: -1.62%,–
CC(C)c1cnc2c(c1SCC(=O)NC(C)(C)C)c(=O)n(C)c(=O)n2C,inactive: -6.4%,–
CCc1ccc(-c2nc(CS(=O)CC(=O)NCCc3ccc(C)cc3)c(C)o2)cc1 (stereo unspecified),inactive: -12%,–
CCOc1ccc(N(C)C(=O)c2oc(=O)c3ccccc3c2-c2ccccc2)cc1,inactive: -6.19%,–

Structure (SMILES),activation,Potency
CCOC(=O)c1noc2nc(C)n(CC(=O)Nc3cccc(OC)c3)c(=O)c12,inactive: -20.5%,–
Cc1ccc(CN(C(=O)c2ccc(OCC(C)C)cc2)c2ccccn2)o1,inactive: -17.7%,–
O=C(O)CC1c2ccccc2CCN1C(=O)Nc1cc(Cl)ccc1Cl (stereo unspecified),inactive: -20.9%,–
CCn1cc2c(n1)-c1c(oc(C(=O)Nc3ccc(Br)cc3F)c1C)CC2,inactive: -2.87%,–
Cc1ccc(N(CC(=O)N2CCN(c3cc(C)ccc3C)CC2)S(=O)(=O)c2c(C)nn(C)c2C)cc1,inactive: -5.7%,–
CCc1ccc(S(=O)(=O)c2nnn3c2nc(N2CCN(c4ccccc4)CC2)c2cc(Cl)ccc23)cc1,inactive: -2.87%,–
Cc1cccc2c1-c1sc(C(=O)Nc3ccc(F)cc3F)cc1CO2,inactive: -5.72%,–
COC(=O)COc1ccc(-c2nnc(Nc3ccc(O)cc3)c3ccccc23)cc1,inactive: 17.8%,–
CCCCC1CCC(C(=O)N2CC(=O)Nc3ccc(Br)cc3C2c2ccc(F)cc2)CC1 (stereo unspecified),inactive: -8.97%,–
CN(C(=O)Cn1nc(Cc2cccnc2)c2ccccc2c1=O)c1cccc(C(F)(F)F)c1,inactive: -14.6%,–
O=c1c2sc3ccccc3c2n(Cc2cccc(F)c2)c(=O)n1CCc1ccccc1,inactive: -16.6%,–
CCN(CC)C(=O)Cn1c(=O)n(CCCCCC(=O)NCc2ccc3c(c2)OCO3)c(=O)c2sccc21,inactive: 0.305%,–
Cc1ccc(CNC(=O)C(=O)Nc2c3c(nn2-c2ccc(F)cc2)CSC3)cc1,inactive: -12.5%,–
Cc1ccc(NC(=O)CN2C(=O)COc3ccc(S(=O)(=O)N4CCCCCC4)cc32)c(C)c1,inactive: 7.34%,–
Cc1ccc(CNC(=O)c2ccc(N3CCCC3)c(NC(=O)Nc3ccc(C)cc3)c2)cc1,inactive: -9.42%,–
CCC(=O)OCc1cc(=O)n2nc(C3CC3)sc2n1,inactive: -12.9%,–
CCCc1cnc2c(c1SCC(=O)NCc1ccc(C)cc1)c(=O)n(C)c(=O)n2C,inactive: -9.94%,–
CCCCCCC(=O)Nc1ccc2nc3c(=O)n(C)c(=O)n(C)c3nc2c1C,inactive: -10.3%,–
O=C(c1ccc2c(c1)N(Cc1ccc(Cl)cc1)C(=O)c1ccccc1S2(=O)=O)N1CCCC1,inactive: -4.93%,–
